From PubChem BioAssay AID504832 (National Center for Advancing Translational Sciences (NCATS), 2011)
The campaign covered roughly 310,000 compounds. About 18,000 (5.8%) were called active. This list was built around the results that the source calls inconclusive (neither active nor inactive); the mix of calls is not that of the screen. The call rests on the fitted dose curve; in most records, active means well fitted inhibition curve with a large enough effect; inconclusive means small, poorly fitted or top-dose-only effect, or another doubt; inactive means no such curve, though single readings can be large or run the other way. No potency is given beside an inconclusive call; the fits are too rough.

Assay: Primary qHTS for delayed death inhibitors of the malarial parasite plastid, 48 hour incubation
Settings: P. falciparum luciferase growth in erythrocytes; series mostly up to 28.7 µM; activity change, negative = inhibition: at the top concentration
Summary of the method: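 Erythrocytes infected with P. falciparum carrying an integrated firefly luciferase reporter (2% hematocrit, 0.1% parasitemia final) were exposed to compounds in RPMI 1640 with 0.5% Albumax at 37 C, 5% CO2. Growth inhibition was scored as reduced luminescence.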
On the % scale 0 is the no-effect control and ±100 the full control effect; potency means the concentration at half of the fitted maximal effect; tags describe the fitted curve by direction and shape.

| SMILES | Potency | activity change, negative = inhibition |
| --- | --- | --- |
| O=C(CN1CCN(CCC(=O)Nc2ccccc2F)CC1)Nc1ccc(F)cc1 | inconclusive [inhibitor, partial curve, poor fit] |  |
| Cc1ccc(Nc2n[nH]c(C)c2[N+](=O)[O-])cc1C |  | inactive: 285% |
| COc1ccc(S(=O)(=O)N2CCc3cc(OC)c(OC)cc3C2)cc1 | active: 0.828 µM |  |
| Cc1ccc(O)c(C2=Nc3ccccc3N=C(c3cccs3)C2)c1 | inconclusive [inhibitor, single point] |  |
| CCC(=O)N1CCN(c2ccc(Cl)cc2NC(=O)c2ccc([N+](=O)[O-])o2)CC1 | inconclusive [inhibitor, single point] |  |
| O=C(COc1ccc2ccccc2c1)Nc1ccncc1 |  | inactive: 1.38% |
| CCCOc1ccc(Cc2c(O)nc(SC)[nH]c2=O)cc1C |  | inactive: -4.88% |
| COc1cccc(/C=N/n2c(C)nc3ccccc32)c1OC |  | inactive: 1.8% |
| COc1ccc(-n2nc3c(c2NC(=O)C(C)Oc2ccccc2)CS(=O)C3)cc1 (stereo unspecified) |  | inactive: -9.8% |
| COc1ccccc1C(=O)Nc1ccc(C)c(S(=O)(=O)N2CCCCC2)c1 | inconclusive [inhibitor, partial curve, poor fit] |  |
| CC1CCCN(CCOCCOc2ccccc2-c2ccccc2)C1 (stereo unspecified) | inconclusive [inhibitor, single point] |  |
| COc1ccc(-n2c(SCC(=O)Nc3ccc4c(c3)OCO4)nc3ccccc3c2=O)cc1 | inconclusive [inhibitor, single point] |  |
| COc1cc(/C=C2\SC(=S)N(NS(=O)(=O)c3ccccc3)C2=O)cc(OC)c1OC | active: 9.28 µM |  |
| O=c1c2c(n3cnnc3n1C1CCCCC1)-c1ccccc1CC21CCCCC1 | inconclusive [inhibitor, partial curve, poor fit] |  |
| CN1CCN(S(=O)(=O)c2cccc(C(=O)NCCC3=CCCCC3)c2)CC1 |  | inactive: -19.8% |
| C=CCN1CCN(C(c2ccccc2)c2nnnn2CCC(C)C)CC1 (stereo unspecified) | inconclusive [inhibitor, full curve, poor fit] |  |
| CCNC(=S)N(CCc1c(C)[nH]c2ccc(Cl)cc12)Cc1cccnc1 | active: 11.7 µM |  |
| CCCCC(=O)Nc1nn(CC(C)C)c2nc3ccccc3cc12 | inconclusive [inhibitor, partial curve, poor fit] |  |
| COc1ccc(S(=O)(=O)N2CCOCC2)cc1NC(=O)c1c(-c2ccccc2)noc1C | inconclusive [inhibitor, partial curve, poor fit] |  |
| CCOC(=O)N1C/C(=C\c2ccccc2)C(=O)/C(=C/c2ccccc2)C1 | active: 4.65 µM |  |
| O=Cc1cc2ccccc2nc1SCCCF | inconclusive [inhibitor, single point] |  |
| CCN(CC)S(=O)(=O)c1ccc(C)c(NC(=O)CN2CCN(C)CC2)c1 |  | inactive: 8.59% |
| COc1ccc(-c2nnc(NC(=O)c3ccc(F)cc3)o2)cc1 | inconclusive [inhibitor, single point] |  |

| SMILES | Potency | activity change, negative = inhibition |
| --- | --- | --- |
| CNC(=S)N(CCc1c(C)[nH]c2ccc(C)cc12)Cc1cccs1 | inconclusive [inhibitor, partial curve, poor fit] |  |
| c1ccc(C2=NNC(c3ccco3)=Nc3ccccc32)cc1 | inconclusive [inhibitor, single point] |  |
| Cc1ccc2c(c1)N(C(=O)CCC(=O)NCc1cccc(Cl)c1)CC(C)O2 (stereo unspecified) | inconclusive [inhibitor, single point] |  |
| Cc1cc(NC(=O)c2c(Br)cnn2C)no1 |  | inactive: 27.7% |
| CCOc1ccc(N2CC(O)Cn3c2nc2c3c(=O)n(CCCc3ccccc3)c(=O)n2C)cc1 (stereo unspecified) | inconclusive [inhibitor, partial curve] |  |
| COc1ccc(NC(=O)C(c2cc3c(cc2[N+](=O)[O-])OCO3)N(C)c2ccccc2)cc1 (stereo unspecified) |  | inactive: 5.8% |
| Cc1nn(Cc2c(Cl)cccc2Cl)c(C)c1NC(=O)c1cn(-c2ccccc2)nc1-c1ccccc1 | inconclusive [inhibitor, full curve, poor fit] |  |
| Cn1c(=O)cc2c3c(c(N4CCCCC4)ccc31)C(=O)c1ccccc1-2 | inconclusive [inhibitor, single point] |  |
| COc1ccc(CCNC(=O)c2cc(-c3cc(Cl)ccc3O)n[nH]2)cc1OC | inconclusive [inhibitor, partial curve] |  |
| Cn1c(Cc2ccccc2)nnc1SCC(=O)N1CCN(c2ccccc2)CC1 | inconclusive [inhibitor, single point] |  |
| COCC(C)n1c(SCC(=O)Nc2cc(C)on2)nc2ccccc2c1=O (stereo unspecified) | inconclusive [inhibitor, single point] |  |
| COc1ccccc1C(=O)NC(C)c1cccc2ccccc12 (stereo unspecified) | inconclusive [inhibitor, single point] |  |
| O=C(c1ccc(C23CC4CC(CC(C4)C2)C3)o1)N1CCOCC1 | inconclusive [inhibitor, single point] |  |
| Cc1ccc2cc(CN(Cc3cccs3)C(=O)c3ccco3)c3nnnn3c2c1C |  | inactive: 22% |
| O=C(CN1CCOCC1)Nc1ccc(NC(=O)c2ccccc2F)cc1 |  | inactive: 1.83% |
| CCOc1cc(/C=C2/NC(=O)N(CC(=O)Nc3cccc(C)c3)C2=O)ccc1OCC(N)=O | inconclusive [inhibitor, single point] |  |
| COCCNC(=S)Nc1ccc(N2CCCCC2)cc1 |  | inactive: 22.9% |
| O=C(NC1CCS(=O)(=O)C1)c1ccc(Br)o1 (stereo unspecified) |  | inactive: 41.1% |
| CCCN(CC(=O)Nc1ccccc1C)C(=O)Cc1n[nH]c(=O)c2ccccc12 |  | inactive: -15% |
| CCOc1cc(/C=C2\SC(N3CCCC(C)C3)=NC2=O)ccc1O (stereo unspecified) | inconclusive [inhibitor, partial curve] |  |
| COc1ccc(COC(=O)C2=C(C)NC(=O)NC2c2cccc(Br)c2)cc1 (stereo unspecified) | inconclusive [inhibitor, partial curve, poor fit] |  |
| COc1cc2c(cc1OC)CN(C1CC(=O)N(c3c(C)cccc3C)C1=O)CC2 (stereo unspecified) | active: 6.57 µM |  |
| COc1c(F)c(F)c(C(=O)Nc2c(C)cc(Br)cc2C)c(F)c1F | inconclusive [inhibitor, partial curve, poor fit] |  |
